Data published in PubChem BioAssay AID485281 (National Center for Advancing Translational Sciences (NCATS), 2010).
Out of some 350,000 compounds screened, about 260 (0.074%) were called active. Inconclusive results, whose numbers are uncertain, are shown with a selection of clear calls. Calls follow the shape of the dose curve; as a rule, active = well fitted inhibition curve with a large enough effect; inconclusive = small, poorly fitted or top-dose-only effect; inactive = no such curve, though single readings can be large or run the other way. Where the call is inconclusive, the potency comes from a doubtful curve fit.

target: Ferritin light chain (Equus caballus) (UniProt P02791); experiment: qHTS Assay for Identification of Novel General Anesthetics; conditions: apoferritin/1-aminoanthracene competitive binding, fluorescence; activity change, negative = displacement: at 77.5 µM (top of the series); also: nearly all actives have a fitted effect of over 20% in size
Outline: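 Apoferritin-based anesthetic binding model; compound displacement of fluorescent 1-AMA measured as endpoint fluorescence after 10 minutes at room temperature, scaled to free-ligand and complex controls.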
% is scaled to controls: 0 for no effect and ±100 for the full control effect; potency is read from the fitted curve at half-maximal effect; tags tell the direction and shape of the fitted curve.

UniProt P02791, sequence (P02791 whole entry, looked up): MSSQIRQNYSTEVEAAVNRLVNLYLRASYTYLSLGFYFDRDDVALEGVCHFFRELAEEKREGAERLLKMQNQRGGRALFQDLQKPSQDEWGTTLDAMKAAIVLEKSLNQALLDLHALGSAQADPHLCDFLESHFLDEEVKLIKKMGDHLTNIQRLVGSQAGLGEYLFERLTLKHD

Activity change, negative = displacement, inactive:
CCNC(=S)N(CCc1ccccc1C)Cc1cc2cc(OC)c(OC)cc2[nH]c1=O -8.39%
O=C(O)c1ccc(-c2nc(-c3ccccc3)cs2)cc1 -1.75%
Cc1ccc(CN2CCN(c3ncccn3)CC2)o1 -8.88%
CCN1CCN(Cc2nnc(-c3ccccc3)o2)CC1 -0.339%
O=c1oc2c(O)c(O)cc3c(=O)oc4c(O)c(O)cc1c4c23 3.55%
CC(CC(=O)NCc1ccc(Cl)cc1Cl)CC1=NS(=O)(=O)c2ccccc2N1 (stereo not given) -16%

Potency, inconclusive:
CC(=O)N1N=C(c2ccc([N+](=O)[O-])cc2)CC1c1ccccc1Cl (stereo not given) 15.8 µM [inhibitor, partial curve]
CCCC1=Nc2cc(C(=O)NCCCOC(C)C)ccc2Sc2ccccc21 35.5 µM [inhibitor, partial curve]
O=[N+]([O-])c1cccc(-c2ccc(CN3CCN(c4ccccc4)CC3)o2)c1 39.8 µM [inhibitor, partial curve]
CCNC(=S)NNC(=O)c1csc2c1CCCC2 31.6 µM [inhibitor, single point]
CC(C)CSc1nc2ccccc2c(=O)[nH]1 39.8 µM [inhibitor, partial curve]
CCCCCCCCCCSc1n[nH]c(N)n1 31.6 µM [inhibitor, single point]
COc1ccc(CCNC(=O)CCCn2c(=O)c3ccccc3n(CC(=O)Nc3ccc(C)cc3Cl)c2=O)cc1OC 0.794 µM [inhibitor, partial curve, poor fit]
O=C(CSc1ncn(-c2ccccc2)n1)Nc1ccc2c(c1)OCCO2 39.8 µM [inhibitor, partial curve]
COc1ccc(CCNC(=O)NC23CC4CC(CC(C4)C2)C3)cc1 25.1 µM [inhibitor, partial curve]
c1ccc2oc(-c3csc(N4CCOCC4)n3)cc2c1 28.2 µM [inhibitor, partial curve]
COc1ccc(C(=O)c2c(C(F)(F)F)oc3c2C(=O)c2ccccc2C3=O)cc1OC 3.16 µM [inhibitor, partial curve]
CC(C)CC(=O)Nc1cc([N+](=O)[O-])ccc1Cl 25.1 µM [inhibitor, partial curve]
CCOC(=O)c1c(NC(=O)Cn2cnc3sc(C)c(-c4ccccc4)c3c2=O)sc(C)c1C 22.4 µM [inhibitor, partial curve]

Potency, inactive:
O=c1cc(-c2cccc(F)c2)[nH]c2ccccc12
